Results taken from PubChem BioAssay AID1460 (National Center for Advancing Translational Sciences (NCATS), 2008).
The campaign covered roughly 270,000 compounds. About 5,800 (2.1%) were called active. The inconclusive results got no clear call from the source; some entries with a clear call stand among them for comparison. The call rests on the fitted dose curve; in most records, active means well fitted inhibition curve with a large enough effect; inconclusive means small, poorly fitted or top-dose-only effect; inactive means flat fitted curve, though single readings scatter. Potencies of inconclusive entries are doubtful fits and often do not repeat.
Further: nearly all actives have a fitted effect of over 55% in size.
Potency means the concentration at half of the fitted maximal effect; tags describe the fitted curve by direction and shape.

What follows are compounds tested against Microtubule-associated protein tau (Homo sapiens) (UniProt P10636) (assay: qHTS for Inhibitors of Tau Fibril Formation, Thioflavin T Binding). Details: recombinant tau K18 P301L (four-repeat tau fragment), heparin-induced fibrillization, ThT fluorescence; series mostly up to 57.4 µM.
UniProt P10636, sequence (P10636 whole entry, looked up, the tested form may be a part): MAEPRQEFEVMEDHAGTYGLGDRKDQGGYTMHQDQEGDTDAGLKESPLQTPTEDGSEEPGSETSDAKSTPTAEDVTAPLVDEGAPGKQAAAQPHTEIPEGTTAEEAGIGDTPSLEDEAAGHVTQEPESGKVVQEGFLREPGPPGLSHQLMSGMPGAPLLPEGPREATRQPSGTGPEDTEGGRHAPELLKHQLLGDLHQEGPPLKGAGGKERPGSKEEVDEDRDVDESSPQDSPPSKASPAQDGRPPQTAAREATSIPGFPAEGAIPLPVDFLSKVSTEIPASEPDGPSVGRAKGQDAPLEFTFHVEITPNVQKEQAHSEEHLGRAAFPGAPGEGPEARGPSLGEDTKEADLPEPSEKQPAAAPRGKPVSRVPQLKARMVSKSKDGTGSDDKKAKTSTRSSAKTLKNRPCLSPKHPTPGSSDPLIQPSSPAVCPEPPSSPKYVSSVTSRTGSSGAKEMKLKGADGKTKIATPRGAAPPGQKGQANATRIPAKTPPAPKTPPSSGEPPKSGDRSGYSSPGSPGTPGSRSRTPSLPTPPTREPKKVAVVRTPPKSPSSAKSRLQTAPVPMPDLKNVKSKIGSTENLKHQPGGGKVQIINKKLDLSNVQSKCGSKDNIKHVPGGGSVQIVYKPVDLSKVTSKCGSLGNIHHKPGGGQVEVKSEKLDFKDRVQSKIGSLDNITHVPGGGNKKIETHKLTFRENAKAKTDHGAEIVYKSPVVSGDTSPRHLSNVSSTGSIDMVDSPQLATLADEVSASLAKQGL
Outline: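 Tau K18 P301L fragment (15 uM unlabeled plus 0.24 uM Alexa 594-labeled) in 100 mM sodium acetate pH 7 with compound, fibrillization induced by 20 uM heparin for 6 hr at 37 C. Thioflavin T (30 uM) added, fluorescence read after 1 hr (ex 450, em 510 nm).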
With `CN1CCN(c2ccc(C(=O)c3ccc(Br)cc3)cc2[N+](=O)[O-])CC1` the Potency was inconclusive: 25.1 µM [inhibitor, single point]. In the case of `O=[N+]([O-])c1ccc(C2=Nc3cc(Cl)ccc3OC2)cc1`, the Potency is reported as inconclusive: 1 µM [inhibitor, full curve]. In the case of `COc1ccc(-n2cc(C(=O)N(CCN(C)C)Cc3ccccc3)c3ccccc3c2=O)cc1`, the Potency is reported as “inactive”. For `O=C(N/N=C/c1c[nH]c2ccccc12)c1cccs1`, the Potency was inconclusive: 10 µM [inhibitor, partial curve]. With `CCN(CC)CCCNc1cc(-c2ccccc2)nc(C)n1` the Potency was “inactive”. In the case of `Cc1ccc(C)c(OCCn2c(C3CC(=O)N(Cc4ccc(F)cc4)C3)nc3ccccc32)c1` (stereo unspecified), the Potency is reported as “inactive”. With `O=C(N/N=C/c1c[nH]c2ccc(Br)cc12)c1ccc2c(c1)OCO2` the Potency was inconclusive: 5.01 µM [inhibitor, partial curve]. With `Cc1cc(C)c(NC(=O)CSc2nc3ccccc3c3nc(CCn4cncc4C)nn23)c(C)c1` the Potency was inconclusive: 20 µM [inhibitor, single point]. `CN1CCN(c2ccc([N+](=O)[O-])c(Sc3nc4ccccc4[nH]3)c2)CC1` was tested, and the Potency was inconclusive: 22.4 µM [inhibitor, partial curve]. `O=C(NCc1ccco1)c1cnn2c(C(F)(F)F)cc(-c3cccs3)nc12` was tested, and the Potency was inconclusive: 15.8 µM [inhibitor, partial curve]. In the case of `O=C(CSc1ncnc2scc(-c3ccccc3)c12)N1CCN(Cc2ccc3c(c2)OCO3)CC1`, the Potency is reported as inconclusive: 10 µM [inhibitor, partial curve]. For `Cc1ccn2cc(CCNC(=O)CC(C)(C)C)nc2c1`, the Potency was “inactive”. In the case of `Cc1ccc(CNC(=O)c2ccc(N3CCCC3)c(NC(=O)Nc3ccc(F)c(Cl)c3)c2)cc1`, the Potency is reported as “inactive”. For `Cc1c(F)cccc1NS(=O)(=O)c1ccc(OCCNS(C)(=O)=O)cc1`, the Potency was inconclusive: 31.6 µM [inhibitor, single point]. With `Cc1ccc(Cl)cc1NC(=S)N(CCN(C)C)C(C)c1ccccn1` (stereo unspecified) the Potency was “inactive”. For `COc1ccccc1C(=O)Nc1ccc(N2CCN(C(C)=O)CC2)cc1`, the Potency was inconclusive: 7.08 µM [inhibitor, partial curve]. In the case of `CCc1ccc2c(CN3CCc4cc(OC)c(OC)cc4C3)cc(=O)oc2c1`, the Potency is reported as inconclusive: 11.2 µM [inhibitor, partial curve]. `CCn1c(=O)cc(OCC(=O)N2CCN(c3cccc(C)c3C)CC2)c2ccccc21` was tested, and the Potency was inconclusive: 1.26 µM [inhibitor, partial curve, poor fit]. `Cc1cc2ccccn2c1C(=O)c1ccncc1` was tested, and the Potency was “inactive”. In the case of `COc1ccc(N=C(C)C2=C(O)CSC2=O)cc1`, the Potency is reported as inconclusive: 20 µM [inhibitor, partial curve]. For `CCCN(CCC)CC(O)CN(c1ccccc1)S(=O)(=O)c1ccc(C)cc1` (stereo unspecified), the Potency was “inactive”. In the case of `Nc1nn(-c2ccccc2)c(N)c1N=Nc1ccc2c(c1)OCO2`, the Potency is reported as active: 1.78 µM. `CC1CCCCN1c1nnc(NC(=O)c2cc(-c3ccc(Br)cc3)on2)s1` (stereo unspecified) was tested, and the Potency was inconclusive: 12.6 µM [inhibitor, partial curve]. With `Cc1ccc2nc(-c3ccc(Cl)s3)c(Nc3ccc4c(c3)OCCO4)n2c1` the Potency was “inactive”. `CCOc1ccc(C(=O)NCCSc2c(C)[nH]c3ccccc23)cc1OCC` was tested, and the Potency was inconclusive: 14.1 µM [inhibitor, partial curve]. `Nc1nc(Nc2ccccc2)nc(NCc2ccco2)c1[N+](=O)[O-]` was tested, and the Potency was inconclusive: 12.6 µM [inhibitor, partial curve]. With `CCCN1C(=O)/C(=C/c2ccc(C)o2)SC1=Nc1ccc(OC)cc1` the Potency was inconclusive: 35.5 µM [inhibitor, partial curve]. For `O=S(=O)(Nc1ccc(-n2cccc2)cc1)c1ccc(F)cc1`, the Potency was “inactive”. `O=C1COc2ccc(C(=O)CSc3nnc(Cc4cccs4)n3-c3ccccc3)cc2N1` was tested, and the Potency was inconclusive: 39.8 µM [inhibitor, partial curve, poor fit]. For `O=C(NCCN1CCOCC1)NC1(C(F)(F)F)Oc2ccc(Cl)cc2O1` (stereo unspecified), the Potency was inconclusive: 15.8 µM [inhibitor, single point]. `O=C(OCC(=O)N1CCc2ccccc21)c1ccc[nH]c1=O` was tested, and the Potency was “inactive”. In the case of `O=C(Nc1cccc(-c2nnc(-c3ccco3)o2)c1)c1ccccc1`, the Potency is reported as “inactive”. `Nc1c(S(=O)(=O)c2ccccc2)c2nc3ccccc3nc2n1/N=C/c1ccco1` was tested, and the Potency was active: 28.2 µM. `O=C(Oc1ccccc1)c1ccc2nccnc2c1` was tested, and the Potency was inconclusive: 15.8 µM [inhibitor, partial curve, poor fit]. In the case of `CC1CCCN(c2nc3c(c(=O)n(C)c(=O)n3C)n2Cc2ccccc2)C1` (stereo unspecified), the Potency is reported as inconclusive: 31.6 µM [inhibitor, partial curve, poor fit]. With `COc1cc(NC(=O)COC(=O)c2n[nH]c3ccccc23)c(C)cc1[N+](=O)[O-]` the Potency was inconclusive: 10 µM [inhibitor, partial curve, poor fit]. `Clc1ncnc2c1oc1ccccc12` was tested, and the Potency was “inactive”. For `Cc1ccc(OCC(=O)Nc2cccc3nsnc23)c(C)c1`, the Potency was inconclusive: 1.78 µM [inhibitor, full curve]. With `CCN(CC)c1ccc(C(=O)c2cnc(/N=C/N(C)C)s2)cc1` the Potency was inconclusive: 15.8 µM [inhibitor, partial curve]. With `O=C(CNc1cccc2ccccc12)N/N=C/c1ccc(OC(=O)/C=C/c2ccco2)cc1` the Potency was inconclusive: 5.01 µM [inhibitor, full curve]. `CCOc1ccc(C(=O)N/N=C/c2ccc(SC)cc2)cc1` was tested, and the Potency was inconclusive: 2.51 µM [inhibitor, partial curve]. In the case of `Cc1ccc(/C=N/N2CCN(c3ccc(Cl)cc3)CC2)o1`, the Potency is reported as inconclusive: 15.8 µM [inhibitor, partial curve]. For `CCN1C(C)=C(C(=O)OC)C(c2ccccc2)N2C(=O)[C@@]3(C(=O)OC)O[C@@]12C1C(=O)CCCC13` (stereo partly specified), the Potency was inconclusive: 3.98 µM [inhibitor, single point]. In the case of `c1ccc2c(Nc3ccncc3)nc(-c3ccoc3)nc2c1`, the Potency is reported as inconclusive: 3.16 µM [inhibitor, partial curve, poor fit]. `CCOC(=O)c1sc(-c2ccc(Cl)cc2)nc1O` was tested, and the Potency was inconclusive: 4.47 µM [inhibitor, partial curve]. `O=C1N=C2SCCN2/C1=C\c1ccc(Cl)cc1` was tested, and the Potency was inconclusive: 39.8 µM [inhibitor, single point]. In the case of `O=C(NC(=S)Nc1nc2c(s1)CSc1ccccc1-2)c1ccccc1`, the Potency is reported as inconclusive: 4.47 µM [inhibitor, partial curve]. With `Cc1ccccc1-c1cc(-n2ccnc2)ncn1` the Potency was inconclusive: 0.0251 µM [inhibitor, full curve, poor fit]. In the case of `N#CC1=C(S)N(c2ccc(F)cc2)C(c2cccs2)NC1=O` (stereo unspecified), the Potency is reported as inconclusive: 28.2 µM [inhibitor, single point]. For `COc1ccccc1N1CCN(C(CNC(=O)C(=O)NCc2cccnc2)c2cccnc2)CC1` (stereo unspecified), the Potency was inconclusive: 35.5 µM [inhibitor, single point]. With `O=C(NCCc1csc(-c2ccc(C(F)(F)F)cc2)n1)c1cccs1` the Potency was inconclusive: 20 µM [inhibitor, partial curve]. With `O=C(N/N=C/C=C/c1ccco1)c1ccccc1Cl` the Potency was inconclusive: 22.4 µM [inhibitor, partial curve]. In the case of `COc1ccccc1CNC(=O)c1c(N)n(CCCN2CCOCC2)c2nc3ccccc3nc12`, the Potency is reported as active: 25.1 µM. `COc1ccc(C(C(=O)Nc2ccc(F)cc2)N(C(=O)Cn2nnc3ccccc32)C2CC2)cc1` (stereo unspecified) was tested, and the Potency was inconclusive: 44.7 µM [inhibitor, single point]. With `COc1ccc(C2NC(=S)NC(C)=C2C(=O)c2ccccc2)cc1OC` (stereo unspecified) the Potency was inconclusive: 39.8 µM [inhibitor, single point]. With `O=C(COc1ccc(Cl)cc1)Nc1nnc(S(=O)(=O)N2CCCCCC2)s1` the Potency was inconclusive: 2 µM [inhibitor, full curve]. For `C/C(CC(=O)Nc1ccc2c(c1)OCO2)=N\NC(=O)c1ccccc1N`, the Potency was “inactive”. `COC(=O)c1ccccc1S(=O)(=O)N(Cc1cc2ccc(OC)cc2[nH]c1=O)CC1CCCO1` (stereo unspecified) was tested, and the Potency was “inactive”. In the case of `COc1ccccc1CNC(=O)c1cc2c(s1)-c1ccc(Cl)cc1SC2`, the Potency is reported as “inactive”. `FC(F)Sc1ccc(NC(=S)NC(c2ccccc2)c2ccccc2)cc1` was tested, and the Potency was “inactive”. In the case of `CCCCNC(=S)Nc1cc([N+](=O)[O-])ccc1C`, the Potency is reported as “inactive”. With `Cc1ccc2c(Cl)c(C(=O)NCC3CCCO3)sc2c1` (stereo unspecified) the Potency was “inactive”. With `O=c1ccc2cc3c([nH]c4ccc(Br)cc43)oc-2c1O` the Potency was active: 14.1 µM. `O=C(Cc1cccs1)Nc1nc(-c2ccccc2)cs1` was tested, and the Potency was “inactive”. `O=S(=O)(Oc1ccccc1/C=N/n1cnnc1)c1ccccc1` was tested, and the Potency was “inactive”. `Cc1ccc(N2C(=O)C(Cl)=C(N3CCOCC3)C2=O)cc1Cl` was tested, and the Potency was active: 14.1 µM. `Cc1cc(C)cc(NS(=O)(=O)c2ccc3[nH]cc(C(=O)NCCc4ccccc4)c(=O)c3c2)c1` was tested, and the Potency was “inactive”. For `CC1(C)CC(=O)/C(=N/Nc2ccc(Cl)cc2)CO1`, the Potency was inconclusive: 25.1 µM [inhibitor, partial curve, poor fit]. For `COc1ccc(CCNC(=O)c2ccc3c(c2)N(Cc2ccccc2)CCS3)cc1OC`, the Potency was inconclusive: 7.94 µM [inhibitor, single point]. In the case of `Cc1ccc(C(=O)N2CCn3c4c(c5cc(C)ccc53)CCCC42)cc1` (stereo unspecified), the Potency is reported as inconclusive: 7.94 µM [inhibitor, full curve, poor fit]. With `Cc1ccc(C2C3CSCC=C3C(C#N)=C(N)C2(C#N)C#N)cc1` (stereo unspecified) the Potency was active: 20 µM.
